In all, about 48,000 compounds went through this assay and about 550 (1.1%) were called active. Not shown: some 4% with an inconclusive outcome. Cut-off read from the data, not from the text of the source: active = potency below about 15 µM; inconclusive = mostly about 16 µM to 33 µM; inactive = weaker than that. The list shows a part of the results.
What follows are compounds tested against Lysosomal acid glucosylceramidase (Homo sapiens) (UniProt P04062) (assay: Glucocerebrosidase). Conditions: purified enzyme, resorufin glucoside fluorescence (screen aimed at inhibitors), 20 min; series mostly up to 77 µM.
UniProt P04062, sequence (P04062 whole entry, looked up): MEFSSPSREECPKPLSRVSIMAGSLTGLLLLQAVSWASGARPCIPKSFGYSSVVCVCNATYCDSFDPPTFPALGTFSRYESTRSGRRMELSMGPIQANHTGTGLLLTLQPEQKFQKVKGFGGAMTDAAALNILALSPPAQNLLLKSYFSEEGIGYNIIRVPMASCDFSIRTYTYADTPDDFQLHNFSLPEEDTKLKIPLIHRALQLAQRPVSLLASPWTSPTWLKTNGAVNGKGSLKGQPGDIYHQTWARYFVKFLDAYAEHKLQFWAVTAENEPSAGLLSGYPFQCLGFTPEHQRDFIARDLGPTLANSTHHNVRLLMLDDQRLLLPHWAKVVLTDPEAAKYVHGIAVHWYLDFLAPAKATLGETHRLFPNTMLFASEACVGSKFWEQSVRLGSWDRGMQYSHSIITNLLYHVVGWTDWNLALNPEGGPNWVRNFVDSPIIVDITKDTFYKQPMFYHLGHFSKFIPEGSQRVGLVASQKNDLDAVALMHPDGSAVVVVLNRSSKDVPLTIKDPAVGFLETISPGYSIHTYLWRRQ
Outline: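 Compounds titrated against 0.2 nM normal enzyme, 30 uM resorufin beta-D-glucopyranoside substrate, citrate/phosphate buffer with taurocholate and tween-20, pH 5.9. Reaction ran 20 min at room temperature; fluorescence (Ex 548/Em 600) gave AC50.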
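Note: the screen sought inhibitors.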
Potency is the fitted concentration of half-maximal effect.

Potency, inactive:
O=C(NC1CCCCC1)C(c1ccc(F)cc1)N(Cc1ccco1)C(=O)Cn1nnc2ccccc21 (stereo unspecified) > 76.9 µM
Cc1ccc(C(=O)C2=C(O)C(=O)N(CCCN3CCOCC3)C23C(=O)N(C)c2ccccc23)o1 (stereo unspecified) > 76.9 µM
COc1ccc(C2=NOC(C(=O)NCc3ccco3)C2)cc1OC (stereo unspecified) > 76.9 µM
CCOC(=O)CSc1nnc(CNc2nc(-c3ccccc3)cs2)n1C > 76.9 µM
COC(=O)c1cccc(N(C(=O)c2cnccn2)C(C(=O)NCc2ccccc2)c2ccco2)c1 (stereo unspecified) > 76.9 µM
O=C(CNC(=O)c1ccco1)NCC(=O)OCc1cccc(C(=O)Oc2ccccc2)c1 > 76.9 µM
CC1CN(C(=O)c2ccccc2)OC(c2ccc3c(c2)OCO3)O1 (stereo unspecified) > 76.9 µM
COc1cccc(C2CC(=O)NC3=C2C(=O)CCC3)c1 (stereo unspecified) > 76.9 µM
Cn1c(=O)cc(SCC(=O)N2CCCC2)c2ccc(Cl)cc21 > 76.9 µM
Cc1nc2n(n1)CC(O)CS2 (stereo unspecified) > 76.9 µM
CC(=O)c1cccc(NC(=O)c2ccc(N(C)S(C)(=O)=O)cc2)c1 > 76.9 µM
CC(c1ccccc1F)n1cc(C(=O)NCc2ccncc2)nn1 (stereo unspecified) > 76.9 µM
Cc1sc2nc(SCC(=O)N(C)C)[nH]c(=O)c2c1C > 76.9 µM
COc1ccc(C2C(C#N)=C(N)OC(C(C)(C)C)=C2C#N)cc1OC (stereo unspecified)
Cc1cc(N2C(=O)CC(N3CCN(c4ccc(C(=O)c5cccs5)cc4)CC3)C2=O)no1 (stereo unspecified) > 76.9 µM
CCN(CC)CCCN1C(=O)C(O)=C(C(=O)c2cc3ccccc3o2)C1c1ccccn1 (stereo unspecified) > 76.9 µM
CCN1CCN(Cc2c(C)[nH]c3ccc(C(=O)OC)cc3c2=O)CC1 > 76.9 µM
C=CCn1c(SCc2csc(C)n2)nc2scc(-c3ccc(C)o3)c2c1=O > 76.9 µM
CCOC(=O)Cc1csc(NC(=O)CSc2nnc(C3CC3)n2C)n1 > 76.9 µM
CCOC(=O)N1CCN(Cc2nc3c(c(=O)n(C)c(=O)n3C)n2CCCc2ccccc2)CC1 > 76.9 µM
CC(=O)c1ccc(OC(=O)C2CC(=O)N(c3cccc(C)c3)C2)cc1 (stereo unspecified) > 76.9 µM
CCN(c1ccccc1)S(=O)(=O)c1ccc(F)cc1C > 76.9 µM
CCCn1c(N2CCN(S(=O)(=O)Cc3ccccc3)CC2)nc2ccccc21 > 76.9 µM
NC(=O)c1c(NC(=O)CSc2nnc(-c3ccco3)n2-c2ccccc2)sc2c1CCC2 > 76.9 µM
COC(=O)CN(C#N)c1nc(SC)nc(N(C)C)n1 > 76.9 µM
CCOC(=O)N1CCN(CC(=O)n2c(C)c(C)c3ccccc32)CC1 > 76.9 µM
COC(=O)[C@H](CCSC)NC(=O)N1CCN(c2cccc(C(F)(F)F)c2)CC1 > 76.9 µM
N#Cc1cn(CC(=O)NCc2cccnc2)c2ccccc12 > 76.9 µM
O=C(O)c1cc(CN2CCOCC2)oc1-c1ccccc1 > 76.9 µM
O=C(Nc1ccc2c(c1)OCO2)C1CCCN1C(=O)Nc1cccc(F)c1 (stereo unspecified) > 76.9 µM
CC(C)(C)NC(=O)CN(C(=O)CS(=O)CC(=O)Nc1ccc(F)cc1)c1ccccc1 (stereo unspecified) > 76.9 µM
Cc1ccc(C(=O)OC2CCOC2=O)cc1NC(=O)c1ccco1 (stereo unspecified) > 76.9 µM
C=CCn1c(SCc2c(F)cccc2Cl)nnc1-c1ccco1 > 76.9 µM
COc1ccc(NC(=O)CSc2nc3sc(C)c(C)c3c(=O)n2Cc2ccco2)cc1 > 76.9 µM
O=C(CN1C(=O)C2CC=CCC2C1=O)Nc1ccc(-c2nnc3n2CCCCC3)cc1 (stereo unspecified) > 76.9 µM
CCC(NS(=O)(=O)c1ccc(OC)cc1)C(=O)O (stereo unspecified) > 76.9 µM
CCOC(=O)c1cc2sc(C)cc2n1CC(=O)N1CCOCC1 > 76.9 µM
COC(=O)Cn1cnc2c(C#N)c3n(c2c1=O)CCCCC3 > 76.9 µM
CN=c1scc(C)n1/N=C/c1ccc2c(c1)OCO2 > 76.9 µM
N#Cc1c(Nc2ccccc2)c(C=NCCN2CCOCC2)c[nH]c1=O > 76.9 µM
CCC(C)(C)n1nnnc1C(c1ccccn1)N1CCOCC1 (stereo unspecified) > 76.9 µM
Cc1ccnc(-n2sc3ccccc3c2=O)n1
COC(=O)CN1CCN(C(c2ccccc2)c2ccccc2)CC1 > 76.9 µM
CCCS(=O)(=O)N1CCCC(C(=O)NCCN(CC)c2ccccc2)C1 (stereo unspecified) > 76.9 µM
CC[C@@H](C)[C@H](NC(=O)C1CCN(C(=O)[C@@H](NS(=O)(=O)c2ccc(C)cc2)C(C)C)CC1)C(=O)O > 76.9 µM
O=C(O)C1CC(=O)N(c2ccc(OCc3ccccc3Cl)cc2)C1 (stereo unspecified) > 76.9 µM
COc1cc2c(cc1OC)CN(c1ccc(-c3ccccc3OC)nn1)CC2 > 76.9 µM
COc1ccc(O)c(-c2cc(-c3cccs3)[nH]n2)c1 > 76.9 µM
CC1(C)OC(=O)C(=CNC(Cc2c[nH]c3ccccc23)C(=O)O)C(=O)O1 (stereo unspecified) > 76.9 µM
CCOC(=O)N1CCN(S(=O)(=O)c2c(C)cc(C)cc2C)CC1 > 76.9 µM
O=C(NCc1ccco1)c1ccc(CS(=O)(=O)Cc2ccc(Cl)cc2)o1 > 76.9 µM
O=C(Cc1cccs1)OCC(=O)c1ccco1 > 76.9 µM
c1ccc2c(c1)OCC(c1nnc3sc(-c4ccc5c(c4)OCO5)nn13)O2 (stereo unspecified) > 76.9 µM
COC(=O)c1ccc(Oc2cc(C)nc(NCc3ccccc3)n2)cc1
COc1ccc(OC)c(C2C(C(C)=O)=C(O)C(=O)N2CCC(=O)O)c1 (stereo unspecified) > 76.9 µM
COc1ccc(CNC(=O)C2CCCN(c3nc4ccccc4o3)C2)c(OC)c1 (stereo unspecified) > 76.9 µM

— PubChem BioAssay AID360 (National Center for Advancing Translational Sciences (NCATS), 2006)
